# Source: article PMC5216067, “Sequence-specific assignment of methyl groups from the neuronal SNARE complex using lanthanide-induced pseudocontact shifts” (Journal of Biomolecular Nmr, 2016)
# B1: rat syntaxin-1A SNARE motif ([…]) (domain or fragment)
# chain: not shown
# notes: syntaxin-1A, rat, […] (SNARE motif); 2H,13CH3-ILMV-labelled in some samples, unlabelled in others; also called Syx; syntaxin-1 SNARE motif; source: E. coli BL21(DE3), purified (as previously described)
# Target: T1, rat synaptobrevin 2 SNARE motif (residues 29-93) (rat, UniProt P63045 in part)
# T1 construct: synaptobrevin 2, rat, residues 29-93 (SNARE motif); 2H,13CH3-ILMV-labelled in some samples, unlabelled in others; also called Syb; synaptobrevin SNARE motif; source: E. coli BL21(DE3), purified (as previously described)
# T1 sequence (P63045 29-93): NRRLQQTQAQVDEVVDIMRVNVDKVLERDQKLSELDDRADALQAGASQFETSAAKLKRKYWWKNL
# Assay: 1H-13C HMQC (methyl-TROSY) NMR with lanthanide-induced pseudocontact shifts on the reconstituted complex; SNARE motifs mixed in 1 M NaCl, room temperature overnight, unlabelled fragments in 80% excess; unassembled motifs removed by concentration-dilution with a 30 kDa cutoff; spectra at 25 °C, 20-30 µM SNARE complex in 20 mM Tris (pH 7.4), 200 mM NaCl, 5% D2O
# Settings: both partners purified
binder,measurement,value
B1,binding result,binds
